Data on three compounds can be found in article PMC5868729 (Angewandte Chemie (International ed. in English), 2015).

In data set [1] the target is MDM2 (Homo sapiens, UniProt Q00987). The data set can be described thus: thermal shift in OCI/AML-2 cell lysate. In kind it is binding. The following applies: OCI/AML-2 lysate, Figure 5b.
Data set [2] deals with p53 activation in T22 cell reporter assay. The data set can be described thus: p53 reporter assay in T22 cells, purified/pre-stapled peptides and controls.
Data set [3] concerns T22 cells. The data set is described as follows: uptake by confocal microscopy in T22 cells. The class given is cell-based. The following applies: live T22 cells, TAMRA-E1 at 20 μM (Figure 5c).
Data set [4] can be described thus: LDH leakage assay. In kind it is cell-based. The note with it: Figure S9.1.1.
Data set [5] can be described thus: aggregation in solution by gel filtration and UV/Vis spectroscopy. The class given is physicochemical. The following applies: Figures S10.1.1, S10.1.2. On the technique in general: In gel filtration, larger molecules generally elute earlier.
Data set [6] relates to chymotrypsin. The data set is described as follows: chymotrypsin proteolytic stability assay. In kind it is in vitro ADME. The following applies: Figure 5d.

UniProt Q00987, sequence (Q00987 whole entry): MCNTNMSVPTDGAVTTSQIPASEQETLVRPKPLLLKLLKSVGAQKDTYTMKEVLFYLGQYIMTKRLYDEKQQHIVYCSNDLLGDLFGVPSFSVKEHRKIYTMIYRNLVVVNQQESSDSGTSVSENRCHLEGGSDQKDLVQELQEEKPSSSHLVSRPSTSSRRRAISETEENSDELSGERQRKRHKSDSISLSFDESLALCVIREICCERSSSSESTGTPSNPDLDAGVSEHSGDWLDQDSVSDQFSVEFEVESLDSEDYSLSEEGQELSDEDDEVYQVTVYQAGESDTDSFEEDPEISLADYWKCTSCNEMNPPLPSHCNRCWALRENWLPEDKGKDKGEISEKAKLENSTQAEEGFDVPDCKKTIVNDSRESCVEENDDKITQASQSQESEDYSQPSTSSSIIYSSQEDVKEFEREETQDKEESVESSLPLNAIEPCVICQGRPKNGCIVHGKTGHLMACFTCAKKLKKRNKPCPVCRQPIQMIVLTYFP

With `COc1ccc(C2=N[C@@H](c3ccc(Cl)cc3)[C@@H](c3ccc(Cl)cc3)N2C(=O)N2CCNC(=O)C2)c(OC(C)C)c1` [Nutlin-3, reference compound], in data set [1], the “stabilization of MDM2 in thermal shift” value is “increased stabilization of MDM2”.
As for `CC(=O)N[C@@H](CCC(=O)O)C(=O)N[C@H](C(=O)N[C@@H](Cc1ccccc1)C(=O)N[C@H]1CCCn2nnc3c2-c2ccccc2-c2nnn(c2-c2ccccc2-3)CCC[C@@H](C(=O)N[C@@H](CCC(=O)O)C(=O)N[C@@H](CC(N)=O)C(N)=O)NC(=O)[C@H](CC(C)C)NC(=O)[C@H](CC(C)C)NC(=O)[C@H](CCCNC(=N)N)NC(=O)[C@H](Cc2c[nH]c3ccccc23)NC(=O)[C@H](CC(C)C)NC(=O)[C@H](CC(=O)O)NC1=O)[C@@H](C)O` [A1], in data set [2] (pure stapled peptide, up to 100 μM, fold activation over 1% DMSO), the “activation of p53 in T22 cell reporter assay” value is on record as “did not induce activation of p53”.
As to `CC(=O)N[C@@H](CC(C)C)C(=O)N[C@H](C(=O)N[C@@H](Cc1ccccc1)C(=O)N[C@H]1CCCn2nnc3c2-c2ccccc2-c2nnn(c2-c2ccccc2-3)CCC[C@@H](C(=O)N[C@@H](CO)C(=O)N[C@@H](C)C(=O)N[C@@H](C)C(N)=O)NC(=O)[C@H](CC(C)C)NC(=O)[C@H](CCC(N)=O)NC(=O)[C@H](C)NC(=O)[C@H](Cc2c[nH]c3ccccc23)NC(=O)[C@H](Cc2ccc(O)cc2)NC(=O)[C@H](CCC(=O)O)NC1=O)[C@@H](C)O` [E1], the “stabilization of MDM2 in thermal shift” value in data set [1] is “increased stabilization of MDM2”. The cellular uptake result in data set [3] is reported as “observed”. For the same compound, the non-specific toxicity entry in data set [4] is “did not exhibit non-specific toxicity”. Moreover, the aggregation in solution entry in data set [5] is “not observed to aggregate”. Besides, the proteolytic stability result in data set [6] is given as “significantly improved proteolytic stability”. Moreover, the “p53 activation by purified pre-stapled peptides, activity ranking” value in data set [2] (isolated stapled peptides in reporter assay, Figure 3b, Figure S11.2.1) is “greatest response”.
